# Measurements reported in ChEMBL document CHEMBL5606460, “ASAP - DENV-2 NS2B-NS3 protease fluorescence single point” (2024).
# In all, about 2,000 compounds went through this assay and about 110 (5.5%) showed an effect of 50% or more. The list shows a part of the results.
# Molecular target: Genome polyprotein (dengue virus type 2) (UniProt P29990)
# [1] = Thailand/16681/1984, Concentration 25.0 uM, Number of replicates 1.0
structure (smiles),measurement,setting,value
O=C(O)C1CCN(Cc2c[nH]c3ccccc23)CC1,inhibition,"Thailand/16681/1984, Concentration 49.5 uM, Number of replicates 2.0, Standard deviation 1.605007793722273 %",-4.66%
same,inhibition,"Thailand/16681/1984, Concentration 99.01 uM, Number of replicates 2.0, Standard deviation 1.896018464285867 %",-4.9%
same,inhibition,"Thailand/16681/1984, Concentration 198.0 uM, Number of replicates 2.0, Standard deviation 2.2003780532972255 %",-4.86%
O=Cc1ccc(N2CCC(C(=O)Nc3nnc(Cl)cc3Br)CC2)cc1,inhibition,[1],33%
c1ccc2c([C@H]3CCN(CC[C@H]4CCCO4)C3)c[nH]c2c1,inhibition,"Thailand/16681/1984, Concentration 49.5 uM, Number of replicates 2.0, Standard deviation 0.7413707781799035 %",-0.151%
same,inhibition,"Thailand/16681/1984, Concentration 99.01 uM, Number of replicates 2.0, Standard deviation 0.23682680855853402 %",0.861%
same,inhibition,"Thailand/16681/1984, Concentration 198.0 uM, Number of replicates 2.0, Standard deviation 0.5777055881333691 %",2.17%
NCc1cccc(NC(=O)[C@H]2COC3(CCOCC3)N2C(=O)OCc2ccccc2)c1,inhibition,"Thailand/16681/1984, Concentration 49.5 uM, Number of replicates 2.0, Standard deviation 0.039998033586414614 %",-2.12%
same,inhibition,"Thailand/16681/1984, Concentration 99.01 uM, Number of replicates 2.0, Standard deviation 0.28658356559600956 %",-1.66%
same,inhibition,"Thailand/16681/1984, Concentration 198.0 uM, Number of replicates 2.0, Standard deviation 0.4465755418909861 %",-0.337%
O=Cc1ccc(N2CCC(C(=O)NCCCN3CCS(=O)(=O)CC3)CC2)cc1,inhibition,[1],14.6%
O=Cc1ccc(N2CCC(C(=O)N3CCCC[C@@H]3Cc3ccccc3)CC2)cc1,inhibition,[1],12.9%
CC(C)(CO)NC(=O)c1cc(Cl)cc(NC(=O)CCNc2cc(Cl)cc(Cl)c2)c1,inhibition,"Thailand/16681/1984, Concentration 49.5 uM, Number of replicates 2.0, Standard deviation 0.7365141546791447 %",-1.53%
same,inhibition,"Thailand/16681/1984, Concentration 99.01 uM, Number of replicates 2.0, Standard deviation 2.0131860287965764 %",5.29%
same,inhibition,"Thailand/16681/1984, Concentration 198.0 uM, Number of replicates 2.0, Standard deviation 4.301058663672598 %",4.92%
CC(C)Nc1nc2cc(NC(=O)[C@@H](N)c3ccccc3)ccc2[nH]1,inhibition,"Thailand/16681/1984, Concentration 49.5 uM, Number of replicates 2.0, Standard deviation 0.5151064756203817 %",-3.2%
same,inhibition,"Thailand/16681/1984, Concentration 99.01 uM, Number of replicates 2.0, Standard deviation 1.4545723729827629 %",-6.38%
COCCn1cccc(C(=O)Nc2ccncc2C)c1=O,inhibition,"Thailand/16681/1984, Concentration 49.5 uM, Number of replicates 2.0, Standard deviation 0.5368463890647557 %",0.774%
same,inhibition,"Thailand/16681/1984, Concentration 99.01 uM, Number of replicates 2.0, Standard deviation 0.49107619706080435 %",6.65%
same,inhibition,"Thailand/16681/1984, Concentration 198.0 uM, Number of replicates 2.0, Standard deviation 0.8434117123195074 %",14.6%
O=Cc1ccc(N2CCC(C(=O)Nc3ccncc3Br)CC2)cc1,inhibition,[1],11.6%
CCOc1ccc(CNC(=O)C2CCN(c3ccc(C=O)cc3)CC2)cc1,inhibition,[1],11.3%
COC(=O)c1cncc(OCc2cc(OC)nc(N3CCNCC3)n2)c1,inhibition,"Thailand/16681/1984, Concentration 49.5 uM, Number of replicates 2.0, Standard deviation 4.08627143265135 %",-2.43%
same,inhibition,"Thailand/16681/1984, Concentration 99.01 uM, Number of replicates 2.0, Standard deviation 3.6715835957511156 %",3.39%
same,inhibition,"Thailand/16681/1984, Concentration 198.0 uM, Number of replicates 2.0, Standard deviation 1.8331343547832488 %",18.3%
N#Cc1ccc(C[C@H](NC(=O)c2ccccc2)C(=O)N2CCC[C@@H](CNC(=N)N)C2)cc1,inhibition,"Thailand/16681/1984, Concentration 49.5 uM, Number of replicates 2.0, Standard deviation 0.9652770488589378 %",-2.01%
same,inhibition,"Thailand/16681/1984, Concentration 99.01 uM, Number of replicates 2.0, Standard deviation 1.769585842360705 %",0.384%
same,inhibition,"Thailand/16681/1984, Concentration 198.0 uM, Number of replicates 2.0, Standard deviation 0.6833160653139061 %",2.07%
O=C(Cc1cnc[nH]1)NC1CCN(C(=O)c2cccc3[nH]ncc23)CC1,inhibition,"Thailand/16681/1984, Concentration 49.5 uM, Number of replicates 2.0, Standard deviation 0.5712330544607026 %",-0.001%
same,inhibition,"Thailand/16681/1984, Concentration 99.01 uM, Number of replicates 2.0, Standard deviation 0.88648652906749 %",0.297%
same,inhibition,"Thailand/16681/1984, Concentration 198.0 uM, Number of replicates 2.0, Standard deviation 1.4162803173835237 %",-0.087%
Cc1nccc(Cn2cc(C3CCNCC3)c(C)n2)n1,inhibition,"Thailand/16681/1984, Concentration 49.5 uM, Number of replicates 2.0, Standard deviation 0.12424043789356491 %",-1.07%
same,inhibition,"Thailand/16681/1984, Concentration 99.01 uM, Number of replicates 2.0, Standard deviation 0.32682664095966646 %",-0.665%
same,inhibition,"Thailand/16681/1984, Concentration 198.0 uM, Number of replicates 2.0, Standard deviation 1.945197851645592 %",1.76%
NS(=O)(=O)c1nc(C(=O)N2CCc3c(CO)cccc32)n2ccccc12,inhibition,"Thailand/16681/1984, Concentration 49.5 uM, Number of replicates 2.0, Standard deviation 1.0653576909274516 %",13.7%
same,inhibition,"Thailand/16681/1984, Concentration 99.01 uM, Number of replicates 2.0, Standard deviation 2.1758259967530833 %",14.9%
same,inhibition,"Thailand/16681/1984, Concentration 198.0 uM, Number of replicates 2.0, Standard deviation 0.4448171648343994 %",17%
Cc1cnc2ccccc2c1NC(=O)c1cccn(CC(C)C)c1=O,inhibition,"Thailand/16681/1984, Concentration 49.5 uM, Number of replicates 2.0, Standard deviation 0.7211595098575954 %",0.008%
same,inhibition,"Thailand/16681/1984, Concentration 99.01 uM, Number of replicates 2.0, Standard deviation 0.6129588138081243 %",4.71%
same,inhibition,"Thailand/16681/1984, Concentration 198.0 uM, Number of replicates 2.0, Standard deviation 0.2617063039687573 %",13%
Cc1n[nH]cc1-c1ccccc1C(=O)Nc1cnn(C)c1,inhibition,"Thailand/16681/1984, Concentration 49.5 uM, Number of replicates 2.0, Standard deviation 1.4825862030761958 %",-4.22%
same,inhibition,"Thailand/16681/1984, Concentration 99.01 uM, Number of replicates 2.0, Standard deviation 3.6856999240165664 %",-5.61%
same,inhibition,"Thailand/16681/1984, Concentration 198.0 uM, Number of replicates 2.0, Standard deviation 2.662860479629087 %",-5.61%
O=Cc1ccc(N2CCC(C(=O)N3CCC4(CC3)CC(=O)c3ccccc3O4)CC2)cc1,inhibition,[1],11.6%
O=C(C(=O)N1CCOCC1)c1c[nH]c2ccccc12,inhibition,"Thailand/16681/1984, Concentration 49.5 uM, Number of replicates 2.0, Standard deviation 0.6407145366012766 %",0.9%
same,inhibition,"Thailand/16681/1984, Concentration 99.01 uM, Number of replicates 2.0, Standard deviation 1.98867718330887 %",1.61%
same,inhibition,"Thailand/16681/1984, Concentration 198.0 uM, Number of replicates 2.0, Standard deviation 1.596809388749934 %",3.54%
Cn1cc(NC(=O)c2ccccc2-c2ccc(C(=O)O)nc2)cn1,inhibition,"Thailand/16681/1984, Concentration 49.5 uM, Number of replicates 2.0, Standard deviation 3.6721540744191348 %",-3.01%
same,inhibition,"Thailand/16681/1984, Concentration 99.01 uM, Number of replicates 2.0, Standard deviation 4.856957640973825 %",-2.48%
same,inhibition,"Thailand/16681/1984, Concentration 198.0 uM, Number of replicates 2.0, Standard deviation 5.981907435360405 %",-0.768%
COc1cc(COc2ccnc3ccnn23)nc(N2CCNCC2)n1,inhibition,"Thailand/16681/1984, Concentration 49.5 uM, Number of replicates 2.0, Standard deviation 1.6931264436869704 %",-1.8%
same,inhibition,"Thailand/16681/1984, Concentration 99.01 uM, Number of replicates 2.0, Standard deviation 0.6739893892069304 %",-1.84%
same,inhibition,"Thailand/16681/1984, Concentration 198.0 uM, Number of replicates 2.0, Standard deviation 0.06794244782035012 %",-0.955%
O=Cc1ccc(N2CCC(C(=O)N3CCC[C@H](c4nnc5ccccn45)C3)CC2)cc1,inhibition,[1],12.6%
O=Cc1ccc(N2CCC(C(=O)NC3CCN(CC4CCOCC4)CC3)CC2)cc1,inhibition,[1],11%
Cc1cc(CO)c2cccc(Cc3cccc(C(=O)N[C@@H](CCCN)C(=O)O)c3)c2n1,inhibition,"Thailand/16681/1984, Concentration 49.95 uM, Number of replicates 2.0, Standard deviation 0.7049975000059713 %",-1.78%
same,inhibition,"Thailand/16681/1984, Concentration 99.9 uM, Number of replicates 2.0, Standard deviation 0.2824297407941699 %",11.7%
O=C(O)c1cnn(C2CCN(Cc3c[nH]nc3-c3ccccc3)CC2)n1,inhibition,"Thailand/16681/1984, Concentration 49.5 uM, Number of replicates 2.0, Standard deviation 0.4065248774274935 %",-0.721%
same,inhibition,"Thailand/16681/1984, Concentration 99.01 uM, Number of replicates 2.0, Standard deviation 0.1820182459648457 %",-1.14%
same,inhibition,"Thailand/16681/1984, Concentration 198.0 uM, Number of replicates 2.0, Standard deviation 0.9153367001493489 %",-1.33%
O=Cc1ccc(N2CCC(C(=O)N3CCN(Cc4ccc(Cl)nc4)CC3)CC2)cc1,inhibition,[1],10.1%
COc1ccc(S(=O)(=O)N2CCC(C(=O)Nc3nc4ccccc4s3)CC2)cc1,inhibition,"Thailand/16681/1984, Concentration 49.5 uM, Number of replicates 2.0, Standard deviation 1.3648800018415175 %",2.28%
same,inhibition,"Thailand/16681/1984, Concentration 99.01 uM, Number of replicates 2.0, Standard deviation 0.35874487080545164 %",4.97%
same,inhibition,"Thailand/16681/1984, Concentration 198.0 uM, Number of replicates 2.0, Standard deviation 3.7738315130637563 %",5.55%
